According to PubChem BioAssay AID1347044 (National Center for Advancing Translational Sciences (NCATS), 2019):
The list shows a part of the results. These are further read-outs of the screen, such as a control signal, another cell line or another target. No call is given for them. The list favours compounds with an active or inconclusive main result. The note in brackets gives the kind of curve behind each potency; many fits are weak.

Experiment: Natriuretic polypeptide receptor (hNpr1) antagonism - Confirmation; note: nearly all actives have a fitted effect of over 70% in size
Conditions: HEK293 hNpr1 cGMP GloSensor luminescence, ANP-stimulated; measured here: HEK-hNpr1 cytotoxicity, CellTiter-Glo
Outline: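 HEK293 cells co-expressing hNpr1 and GloSensor cGMP sensor preloaded 2 h with 2% GloSensor reagent, compounds added 30 min at room temperature, then 0.1 nM hNppA for 20 min; luminescence read before and after agonist. Cytotoxicity counter-screen run.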
Tags give direction and shape of the fitted curve.

Structure (SMILES) | CC50
Cc1ccc(NC(=O)CCC2CCN(S(=O)(=O)c3ccccc3C)CC2)cc1F | 24.3 µM [falling, single point]
COc1cccc(NC(=O)Cn2c(N(C)Cc3ccccc3)nc(C)cc2=O)c1 | 15.3 µM [falling, partial curve]
CCc1ccc(CNC(=O)C2CCN(c3cc(C(F)(F)F)ncn3)CC2)cc1 | 21.7 µM [falling, partial curve]
Cc1oc(C(O)c2ccccc2F)nc1C(=O)Nc1ccccc1C(N)=O (centres undefined) | 31.4 µM [falling, partial curve]
CCn1c2c(c(=O)n1-c1ccccc1)CCN(C(=O)c1ccc(Oc3ccccc3)cc1)C2 | 13.7 µM [falling, partial curve]
COc1ccc(-c2noc(CC3CCN(C(=O)c4cc(F)ccc4Cl)CC3)n2)cc1 | 15.3 µM [falling, partial curve]
Cc1nn(C)c2nc(N3CCC(C#N)(c4ccccc4)CC3)sc12 | 21.7 µM [falling, partial curve]
COc1ccc(-c2noc(CC3CCN(C(=O)c4ccc(OC)cc4OC)CC3)n2)cc1 | 4.85 µM [falling, full curve]
COc1cccc(C(=O)N2CCN(c3cc(-c4ccc(Cl)cc4)[nH]n3)CC2)c1OC | 15.3 µM [falling, partial curve]
O=C(C1CC(=O)N(c2n[nH]c3ccccc23)C1)N1CCC(c2noc3cc(F)ccc23)CC1 (centres undefined) | 24.3 µM [falling, partial curve]
Cc1ccc2c(c1)nc1n2[C@@H](CNS(=O)(=O)Cc2ccccc2)COC1 | 31.4 µM [falling, partial curve]
COc1ccccc1-c1ncc(CNc2cc(C3CC(O)C3)ncn2)s1 (centres undefined) | 10.9 µM [falling, partial curve]
CCn1cc(CNC(=O)c2ccc(OC3CCN(S(=O)(=O)N(C)C)CC3)cc2)cn1 | 17.2 µM [falling, partial curve]
O=C(Nc1ccccc1)O[C@@H]1CO[C@H]2[C@@H]1OC[C@@H]2NC(=O)c1ccc2c(c1)OCO2 | 49.8 µM [falling, single point]
CCOC(=O)c1ccc(CNC(=O)N2CCC3(CC2)CN(c2ccccc2)C3=O)cc1 | 21.7 µM [falling, partial curve, poor fit]
COc1ccc(CC(=O)N2CCC(Cc3nc(-c4ccccc4)no3)CC2)cc1OC | 12.2 µM [falling, partial curve]
COc1ccc(CC(=O)N2CCC(Cc3nc(-c4ccccc4)no3)CC2)cc1Cl | 34.3 µM [falling, single point]
Cc1noc(-c2ccco2)c1C(=O)NCc1cccc2ccccc12 | 21.7 µM [falling, partial curve]
COc1cccc(CC(=O)N2CCN(C(=O)c3nnn4c3COC(c3ccc(Cl)cc3)C4)CC2)c1 (centres undefined) | 21.7 µM [falling, partial curve]
O=C(c1ccc(Cl)cc1)N1CCC(n2cc(-c3nc(-c4ccccc4)no3)nn2)CC1 | 24.3 µM [falling, partial curve]

Structure (SMILES) | CC50
COc1cc(OC)cc(C(=O)N2CCC(Cc3nc(-c4ccc(F)cc4)no3)CC2)c1 | 19.3 µM [falling, partial curve]
Cc1ccccc1C(=O)N1CCC(Cc2nc(-c3ccccc3)no2)CC1 | 17.2 µM [falling, partial curve]
COCc1noc(-c2ccc(N(C)CC3CC(=O)N(C(C)(C)C)C3)nc2)n1 (centres undefined) | 21.7 µM [falling, partial curve, poor fit]
COc1ccccc1Nc1ncc2c(n1)CN(C(=O)c1cccc(N(C)C)c1)CCN2 | 35.3 µM [falling, partial curve]
CC1=NS(=O)(=O)N(Cc2ccccc2)C=C1C(=O)OCc1noc(-c2ccc(C)c(C)c2)n1 | 17.2 µM [falling, partial curve]
O=C(Nc1ccc(Oc2ccccc2)cc1)c1cc2n(n1)CC(c1ccc(Cl)cc1)OC2 (centres undefined) | 3.43 µM [falling, full curve]
CCC(=O)N1CCc2sc(C(=O)N3CCN(c4cccc(Cl)c4)CC3)cc2C1 | 19.3 µM [falling, partial curve]
O=S(=O)(N[C@H]1CO[C@H]2[C@@H]1OC[C@@H]2Nc1nccc(-c2ccc3c(c2)OCO3)n1)c1ccc2ccccc2c1 | 19.3 µM [falling, partial curve]
COc1ccc(C(=O)N2CCn3c(nn(-c4ccc(Cl)cc4)c3=O)C2)cc1 | 21.7 µM [falling, partial curve]
O=S(=O)(c1ccc2c(c1)CCCC2)N1CCCC(Cn2cnc3cccnc32)C1 (centres undefined) | 27.3 µM [falling, single point]
Cc1cccc(C(=O)N2CCC(Oc3ccc(-c4noc(C(C)C)n4)cc3)C2)c1 (centres undefined) | 27.3 µM [falling, partial curve]
COc1ccc(C2Cn3nnc(C(=O)N4CCN(C(=O)CCc5ccccc5)CC4)c3CO2)cc1 (centres undefined) | 30.6 µM [falling, single point]
Cn1ccc2c(C(=O)NCc3cccnc3)nc(Nc3ccccc3)cc21 | 28 µM [falling, partial curve]
Cc1ccc(NC(=O)C2CCN(c3cc(C(F)(F)F)ncn3)CC2)cc1F | 15.3 µM [falling, partial curve]
N#Cc1ccc(C(=O)NC2CCN(c3cc(-c4ccc(Cl)cc4)[nH]n3)CC2)cc1 | 19.3 µM [falling, partial curve]
Cn1nccc1-c1ncc2c(n1)OCCN(Cc1ccc(F)cc1F)C2=O | 31.4 µM [falling, partial curve]
COc1ccc(F)cc1Nc1cnc2ccc(N(C)Cc3cccnc3)nn12 | 31.4 µM [falling, partial curve]
Cc1ccccc1-c1cnc2[nH]cc(CC(=O)N3CCOCC3)c2c1 | 11.1 µM [falling, partial curve]
Cc1nn2c(c1-c1ccccc1Oc1ccccc1)N(Cc1ccccc1O)CCC2 | 62.7 µM [falling, single point]
